Measured values published in the supplement of paper PMC4166925.
± gives the standard deviation of the averaged measurements. In all, about 33,000 sequences were measured (“E-score (dimensionless, -0.5 to 0.5)”: median about -0.049, highest 2% from about 0.37 on). This is one part of the list.

Tested on: T1, PmTbr T-box DNA-binding domain (GST fusion)
T1 sequence: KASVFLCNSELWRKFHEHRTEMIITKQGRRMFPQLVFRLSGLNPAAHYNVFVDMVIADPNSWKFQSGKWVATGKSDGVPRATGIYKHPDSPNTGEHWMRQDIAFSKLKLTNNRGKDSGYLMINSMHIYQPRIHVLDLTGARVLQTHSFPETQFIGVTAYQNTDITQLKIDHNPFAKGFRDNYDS
Assay: PBM E-score of 8-mer (E-score (dimensionless, -0.5 to 0.5)); Tbr is Tbrain of the sea star Patiria miniata (Pm) or the sea urchin Strongylocentrotus purpuratus (Sp); higher = stronger binding preference; most listed sequences are background and not binding sites
Details: the construct has about 5 more residues each side
Method in brief: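 Using the Universal PBM Analysis Suite, every ungapped 8-mer received an enrichment E-score averaged over duplicate arrays. Probe intensities came from double-stranded Universal Agilent oligonucleotide arrays incubated with 200 nM GST-fused Tbr T-box DNA-binding domain in PBS (pH 7.5). That protein was expressed in BL21 E. coli at 20 °C and purified by glutathione affinity chromatography.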

Sequence	PBM E-score of 8-mer
CAAGGTAG	0.0168 ± 0.033
CGGTCGTA	-0.154 ± 0.11
GCAAAAGC	0.037 ± 0.06
AAGCAATT	-0.296 ± 0.047
AGATGTGA	0.357 ± 0.01
TATGAAGA	-0.156 ± 0.019
GCATTTTA	-0.0745 ± 0.018
CGTGTGAG	0.363 ± 0.013
CATCGACC	0.0634 ± 0.025
ACGGCACT	-0.184 ± 0.014
AAAACTCA	-0.126 ± 0.05
GAATGATA	-0.177 ± 0.015
CCGTCCTA	-0.275 ± 0.02
ACAGCTAT	0.217 ± 0.043
GCTGTTAA	0.199 ± 0.089
CAGTGACG	0.134 ± 0.011
ACGCGTTG	0.187 ± 0.0046
CTTACGCC	0.108 ± 0.029
ATCGGGTA	-0.246 ± 0.072
TACATCGA	-0.0841 ± 0.064
AGGAATCC	-0.228 ± 0.051
CCAGTTCG	-0.194 ± 0.018

Sequence	PBM E-score of 8-mer
CAGGCCCA	-0.313 ± 0.039
GTACCAAC	-0.0487 ± 0.11
ATCGAAAC	-0.0958 ± 0.024
GCCTAAAA	-0.113 ± 0.042
CCTGCGCA	0.0979 ± 0.052
ACGCTGAC	-0.0163 ± 0.12
AAATGCAG	-0.218 ± 0.083
GCGCCATA	0.125 ± 0.0078
AGTTTGCA	0.0343 ± 0.036
TCTTGCCA	0.0678 ± 0.023
TCAGGGAA	-0.115 ± 0.034
CACAGATC	0.0575 ± 0.025
AATGGGTC	-0.142 ± 0.021
CGTCGTAA	-0.109 ± 0.033
CCGATCCC	-0.171 ± 0.081
AAGATTGG	-0.131 ± 0.058
GGCACGAC	0.00736 ± 0.0017
AAATTCTG	0.00903 ± 0.054
ACCTAGTG	0.223 ± 0.013
CAACTTCC	-0.0171 ± 0.036
AGAGACTA	-0.135 ± 0.0073
CACAGCTC	0.227 ± 0.0088

Sequence	PBM E-score of 8-mer
AAAGACAA	-0.172 ± 0.069
ACCTGTTC	0.218 ± 0.031
CATGTGGG	-0.0208 ± 0.025
CACAGTGA	0.15 ± 0.019
AACGGTTC	0.0827 ± 0.042
GTCAGTTA	0.0514 ± 0.0075
CCGGCAAA	-0.126 ± 0.059
ACACCATC	0.3623 ± 0.0033
AGCACAAT	0.0257 ± 0.032
GTAATAAA	-0.195 ± 0.099
ATCTACTG	-0.184 ± 0.041
GCACGTTA	0.216 ± 0.031
ACCGACGT	-0.0477 ± 0.005
CATTCACA	0.385 ± 0.0049
ACTTGCTC	-0.0342 ± 0.093
CCCAGGCG	-0.0696 ± 0.036
CTCTTCTC	-0.238 ± 0.028
ACCATAAT	-0.023 ± 0.091
CATGTTTA	-0.058 ± 0.078
GGAACTGA	-0.00021 ± 0.054
ACGGATAG	0.08 ± 0.03
ATGTAAGG	-0.101 ± 0.073

Sequence	PBM E-score of 8-mer
CCAGAGCC	-0.17 ± 0.0096
CGCTTCTC	0.103 ± 0.028
GACTAATA	-0.102 ± 0.011
ACGGCCGA	-0.316 ± 0.0043
CAGCGTCG	-0.0943 ± 0.09
GATCTATA	0.0424 ± 0.02
CTGGCCAC	0.0141 ± 0.043
ACCTGTCC	0.151 ± 0.022
AGTTAGCC	-0.112 ± 0.064
CAAACCCG	0.0206 ± 0.045
AGTGAACA	0.169 ± 0.0073
TGGTCGAA	-0.187 ± 0.032
TAGAAATA	-0.196 ± 0.012
GATTTGTA	-0.185 ± 0.12
CGCTTTAG	0.0898 ± 0.14
GTTGTTGA	0.245 ± 0.029
AGAATGCC	-0.272 ± 0.043
AATTTTGC	0.0935 ± 0.083
AAGCCCTG	-0.226 ± 0.021
AATATGCG	0.139 ± 0.038
